Data from PubChem BioAssay AID488969 (Vanderbilt High Throughput Screening Facility, 2010).
Whole data set: some 110,000 compounds, median “z-score” near -0.1, cut for the highest 2% near 2. The list shows a part of the results. Activity calls are given as the source filed them.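 Rule for the calls: active = z-score in the third read window above 3 or below -3; inactive = the rest.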

target: Metabotropic glutamate receptor 8 (Rattus norvegicus) (UniProt P70579); test: mGluR8 Gi/Go-coupled signaling modulation – cell-based, rat, thallium flux, HTS, primary screen (AID 488969); conditions: HEK293 rat mGluR8, GIRK (G protein-gated inwardly rectifying potassium channel) thallium flux, FluoZin2; at 10 µM; stronger effect = higher value; submaximal glutamate (EC20) added with thallium
UniProt P70579, sequence (P70579 whole entry, looked up): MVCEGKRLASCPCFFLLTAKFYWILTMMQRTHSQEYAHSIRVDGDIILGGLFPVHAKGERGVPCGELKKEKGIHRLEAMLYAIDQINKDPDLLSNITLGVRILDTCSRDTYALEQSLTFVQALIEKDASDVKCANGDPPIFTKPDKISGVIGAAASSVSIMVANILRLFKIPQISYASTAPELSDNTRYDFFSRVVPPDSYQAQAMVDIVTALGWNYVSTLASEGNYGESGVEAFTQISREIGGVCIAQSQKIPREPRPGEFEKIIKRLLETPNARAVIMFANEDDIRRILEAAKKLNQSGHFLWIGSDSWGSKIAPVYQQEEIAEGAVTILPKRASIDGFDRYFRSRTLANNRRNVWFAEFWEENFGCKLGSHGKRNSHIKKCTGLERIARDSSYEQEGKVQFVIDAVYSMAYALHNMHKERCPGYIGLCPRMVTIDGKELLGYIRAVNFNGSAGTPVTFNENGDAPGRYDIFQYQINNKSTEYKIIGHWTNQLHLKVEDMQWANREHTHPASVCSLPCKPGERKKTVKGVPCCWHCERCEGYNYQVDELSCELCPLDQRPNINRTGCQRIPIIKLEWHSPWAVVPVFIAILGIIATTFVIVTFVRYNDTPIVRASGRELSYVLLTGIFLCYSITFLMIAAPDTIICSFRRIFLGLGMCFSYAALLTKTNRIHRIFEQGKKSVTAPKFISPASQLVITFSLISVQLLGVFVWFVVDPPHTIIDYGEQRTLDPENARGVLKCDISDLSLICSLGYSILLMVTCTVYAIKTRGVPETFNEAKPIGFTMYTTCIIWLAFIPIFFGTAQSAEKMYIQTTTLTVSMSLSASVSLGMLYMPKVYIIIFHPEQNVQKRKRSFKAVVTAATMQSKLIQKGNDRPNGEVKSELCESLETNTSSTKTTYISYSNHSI

SMILES | z-score
CCN(CC)c1ncnc2scc(C3COc4ccccc4O3)c12 (centres undefined) | 0.0186
COc1cc(NC(=O)CN2C(=O)c3ccccc3S2(=O)=O)c(OC)cc1Cl | -0.144
CC(=O)Nc1ccc(S(=O)(=O)NNC(=O)CCC(=O)Nc2cc(C)ccc2C)cc1 | -0.368
CCOC(=O)C1=NN(C(=O)c2ccccc2)C(O)(c2ccc(C)cc2)C1 (centres undefined) | active: 10.5
COc1ccc(C(=O)Nc2ccc(S(=O)(=O)N3CCCCC3)cc2)cc1OC | -0.152
CC(/C=C/c1ccc(C)o1)=C\C(=O)O | 0.682
Cc1cc(NC(=O)C2CC(c3ccccc3Cl)=NO2)no1 (centres undefined) | -0.102
Cc1ccc(-n2c(Cc3cccn3C)nnc2SCC(=O)NCc2ccc3c(c2)OCO3)cc1 | 0.0164
N#CC1=C(N)OC2=C(CN(Cc3ccccc3)C/C2=C\c2cccnc2)C1c1cccnc1 (centres undefined) | -0.12
CC(Cc1cccs1)NC(=O)Nc1ccc(Cl)cc1 (centres undefined) | 1.28
CNc1nnc(CSc2nc(C)cc(C)n2)s1 | -0.0604
COc1ccc(CCNC(=O)Cn2cccc2C(=O)c2ccccc2)cc1OC | -0.384
CC(C)NC(C(=O)Nc1cc(Cl)cc(Cl)c1)c1ccccc1 (centres undefined) | 0.344
CC(=O)OCC(OC(C)=O)C(OC(C)=O)C(OC(C)=O)C(=O)Nc1ccc(C)cc1 (centres undefined) | 0.0188
N#Cc1ccc(-c2csc(NNC(=O)c3ccc(Br)cc3)n2)cc1 | -0.39
CCOCCCNC(=O)C1CCCN1C(=O)NC1CCCCC1 (centres undefined) | -0.594
CCCCc1nc(NCc2ccccc2)c(C#N)c2c1COC(C)(C)C2 | 0.531
CCOC(=O)c1ccc(N2C(=O)C3ON(c4ccccc4)C(c4ccco4)C3C2=O)cc1 (centres undefined) | -0.354
O=C(Nc1ccccc1C(=O)N1CCOCC1)c1noc2c1CCCC2 | -0.797
C=C(C)C1CC=C(C)/C(=N\NC(=O)CCc2ccccc2)C1 (centres undefined) | -0.339
COC(=O)c1cc(OC)c(OC)cc1NC(=S)Nc1cccc(C(C)=O)c1 | 1.8
COc1ccc(/C=C2/SC(=O)N(CCNC(=O)C3CCCN3C(=O)c3cccs3)C2=O)cc1 (centres undefined) | -0.148
Cc1ccc(N=Nc2c(O)n(CN3CCOCC3)c3ccccc23)cc1 | -0.152

SMILES | z-score
Cc1ccc(C(=O)c2sc3nsc(C)c3c2N)cc1 | -0.0515
O=C1C2CCCN2C(c2cccc(F)c2)N1c1cccc(Cl)c1 (centres undefined) | -0.718
CCc1cc2c(CN3CCN(CC)CC3)cc(=O)oc2cc1O | -0.115
COc1ccc(C(=S)NC2CCCCC2)cc1 | -0.201
Cc1nc2sc3c(c2c(=O)o1)CC(C)(C)OC3 | 0.0177
O=C(NCc1cccs1)c1ccccc1[N+](=O)[O-] | -0.563
N/C(=N\OS(=O)(=O)c1cccc([N+](=O)[O-])c1)c1ccncc1 | -0.167
CC(C)n1c(SCC(=O)N2c3ccccc3Sc3ccccc32)nc2c1c(=O)n(C)c(=O)n2C | -0.355
Cc1ccc(C(=O)Nc2ccccc2C(=O)N2CC3(C)CC2CC(C)(C)C3)cc1 (centres undefined) | -0.155
O=C(CC1C(=O)NCCN1C(=O)Nc1ccccc1)Nc1ccc2c(c1)OCO2 (centres undefined) | 0.435
CC(C)NC(=O)c1ccccc1S(=O)(=O)c1ccccc1C#N | -0.187
Cc1c[nH]c2cccc(OCC(O)CNC(C)(C)C)c12 (centres undefined) | 0.45
O=C(Nc1ccc(F)cc1)N1CCOCC1 | 0.651
COc1ccccc1OCC(=O)OCC(=O)Nc1sccc1C(N)=O | -0.178
Cc1ccc([N+](=O)[O-])cc1NC(=O)CN(C(=O)c1ccc(Cl)cc1)C1CCCCC1 | -0.595
Cc1ccc(S(=O)(=O)/N=C/c2ccc(N(C)C)cc2)cc1 | -0.154
Cc1ccc2c(c1)c(C)cc[n+]2Cc1ccccc1 | -0.0709
COc1cccc(/C=C/C(=O)OCC(=O)N2c3ccccc3NC(=O)C2(C)C)c1 | 0.273
Cc1ccc(CCNC(=O)CCc2nc3ccccc3[nH]2)cc1 | 0.788
O=[N+]([O-])c1c(NCc2ccccc2)cc(N2CCc3ccccc3C2)c2nonc12 | -0.0475
CCCCOC(=O)Nc1ccc(S(=O)(=O)Nc2ccc([N+](=O)[O-])cc2)cc1 | 0.51
Cc1nc(SCC(=O)Nc2ccc(F)cc2)c(C#N)c(C)c1CC(=O)c1ccc(Br)cc1 | -0.0107
O=C(CSc1nc(C2CC2)nc2ccccc12)Nc1ccc2c(c1)OCCO2 | -0.147

SMILES | z-score
CCC(=O)NC(c1cccc([N+](=O)[O-])c1)c1c(OC(C)=O)ccc2ccccc12 (centres undefined) | -0.5
CNS(=O)(=O)c1cccc(C(=O)OCC(=O)C23CC4CC(CC(C4)C2)C3)c1 | 0.123
COC(=O)CNC(=O)Cc1c(F)cccc1Cl | 0.836
Cc1ccc(C(=O)Oc2ccc3c(c2)ncn3C)cc1 | -0.539
Cc1cc2ccccc2cc(C)c1=O | -0.133
Cc1ccc(C)c(N(C(=O)c2nsc(Cl)c2Cl)C(C(=O)NC2CCCC2)c2ccc(O)cc2)c1 (centres undefined) | -0.36
COc1ccccc1-c1nnc(SCc2nc3ccccc3s2)n1C | -0.032
Cc1ccc(C)c(N2CCN(C(=O)COc3cc(=O)n(C)c4ccccc34)CC2)c1 | -0.277
O=C(COc1ccccc1-c1ccccc1)N/N=C/c1cccc2ccccc12 | -0.0947
Cc1ccc(NC(=O)c2cc(-c3ccccc3)nn2-c2ccccc2)cc1 | 1.28
CCc1nc(SCc2ccc(C(=O)OC)o2)c2c(=O)n(C)c(=O)n(C)c2n1 | -0.788
COC(C(=O)Nc1ccc(S(=O)(=O)Nc2c(C)cccc2C)cc1)c1ccccc1 (centres undefined) | -1.68
Cc1ccc(C(=O)OCC(=O)Nc2cc(F)ccc2F)cc1NC(=O)c1ccco1 | -0.571
CC(C)n1nc(C(=O)OCC(=O)c2c[nH]c3ccccc23)c2ccccc2c1=O | -2.75
CCc1n[nH]c(=S)n1/N=C/c1cc(Br)c(OC)cc1OC | -0.208
Cc1cccc(-c2cc3nc(-c4ccccc4)cc(N4CCC5(CC4)OCCO5)n3n2)c1 | 0.212
N#Cc1ccc(-c2ccc(F)cc2)nc1Sc1ccc(F)cc1 | -0.78
COc1ccc(N2C(=O)CC3(CCCC3)CC2=O)cc1 | -0.127
Cc1ccc2nc(Nc3nc(C)cc(C(F)(F)F)n3)nc(C)c2c1 | -0.124
CCC1(C)Cc2ccccc2-c2nc(NCCCO)n(-c3ccccc3)c(=O)c21 (centres undefined) | -0.129
COc1ccccc1N1C(=N)S/C(=C\c2ccc(-c3ccccc3C(=O)O)o2)C1=O | -0.362
COc1ccc2[nH]cc(C(=O)CN3CCC(C)CC3)c2c1 | 0.0398
COCCN1C(=O)c2oc3cc(C)c(C)cc3c(=O)c2C1c1cccc(O)c1 (centres undefined) | -0.184
